Data: PubChem BioAssay AID686979 (National Center for Advancing Translational Sciences (NCATS), 2013)
Hit rate of the full screen: of about 420,000 compounds, about 50,000 (12%) were called active. Inconclusive results, whose numbers are uncertain, are shown with a selection of clear calls. Calls follow the shape of the dose curve; as a rule, active = well fitted inhibition curve with a large enough effect; inconclusive = small, poorly fitted or top-dose-only effect; inactive = flat fitted curve, though single readings scatter. No potency is given beside an inconclusive call; the fits are too rough.

assay: qHTS for Inhibitors of human tyrosyl-DNA phosphodiesterase 1 (TDP1): qHTS in cells in presence of CPT; settings: chicken DT40 Tdp1-/-;hTDP1 cells + 20 nM CPT, ATP luminescence, 48 h; activity change, negative = growth inhibition: at 46.2 µM (top of the series) unless noted; also: nearly all actives have a fitted effect of over 55% in size
In short: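 Cell growth measured by CellTiter-Glo luminescence after a minimum 48 h, 37 C compound exposure with 20 nM CPT in Tdp1-knockout DT40 cells stably expressing hTDP1, seeded 400/well; qHTS titration format.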
% is scaled to controls: 0 for no effect and ±100 for the full control effect; potency is read from the fitted curve at half-maximal effect; tags tell the direction and shape of the fitted curve.

Structure (SMILES) | Potency | activity change, negative = growth inhibition
CNC(=O)c1c(NC(=O)c2ccc(S(=O)(=O)N3CCCCC3C)cc2)sc2c1CCN(C)C2 (configuration not stated) | inconclusive [inhibitor, single point] | –
CC(=O)Nc1ccc(S(=O)(=O)n2nc(-c3ccc(C)cc3)nc2N)cc1 | inconclusive [inhibitor, single point] | –
C=CCN=Cc1c(C)[nH]n(-c2ccccc2)c1=O | inactive | –
C[C@H](O)[C@@H]1C(=O)N2CCc3ccc(-c4ccccc4)cc3[C@@H]2C[C@@H]1N(C)C(=O)c1ccco1 | inconclusive [inhibitor, single point] | –
O=C(c1ccc(Nc2cccc(C(F)(F)F)c2)nc1)N1CCCC1 | inconclusive [inhibitor, partial curve] | –
CN(C)CCCNc1ccc(-c2cc(Nc3cccc(Cl)c3)ncn2)cn1 | inconclusive [inhibitor, partial curve, poor fit] | –
COc1ccc(CN(C)C(=S)Nc2ccc(Cl)cc2Cl)cc1 | inconclusive [inhibitor, single point] | –
CC(=O)c1cc(-c2ccc(F)cc2)n(CCC(=O)NCc2ccc(C)cc2)c1C | inconclusive [inhibitor, single point] | –
Cc1ccc(C(=O)NC2CCN(Cc3ccccc3)CC2)cc1S(=O)(=O)N1CCOCC1 | inconclusive [inhibitor, single point] | –
CCCCCCSc1ccc([C@@H]2[C@H]3C(=O)N(CC)C(=O)[C@H]3[C@]3(C(=O)OC)CCCN23)cc1 | active: 20.6 µM | –
CC(C)NC(=O)C1CCCN(S(=O)(=O)c2cccc3nonc23)C1 (configuration not stated) | inactive | –
O=C(NCCc1ccc(Cl)cc1)c1ccc2nc(N3CCOCC3)sc2c1 | inconclusive [inhibitor, partial curve, poor fit] | –
COC(=O)c1cc(=O)n(CCc2ccc(OC)c(OC)c2)c(=Nc2ccc(F)c(Cl)c2)s1 | inconclusive [inhibitor, single point] | –
COC(=O)C1CCCCN1Cc1ccc2c(c1)CN(C(=O)c1cc(C)nc3cc(F)ccc13)CCO2 (configuration not stated) | – | inactive: 11.4% [at 9.04 µM]
O=C(OCc1cc2ccccc2[nH]c1=O)c1cccc([N+](=O)[O-])c1 | inactive | –
Cc1cccc(C)c1NC(=O)C1(NC(=O)C2CCCN2C(=O)OC(C)(C)C)CCCCC1 (configuration not stated) | inactive | –
CC1(C(=O)NS(=O)(=O)c2cccs2)CCN1C(=O)c1ccccc1 (configuration not stated) | inactive | –
CCc1ccc(Sc2cc(C(=O)NCCCN3CCCC(C)C3)c3ccccc3n2)cc1 (configuration not stated) | inconclusive [inhibitor, single point] | –
CCOC(=O)c1[nH]c(C)c(C(=O)Nc2cc(OC)ccc2OC)c1C | active: 0.794 µM | –
CNc1nc(N/N=C/c2ccc([N+](=O)[O-])cc2)nc(Nc2ccccc2)n1 | inconclusive [inhibitor, single point] | –
CSc1ccc(/C=C/C(=O)c2c(O)cc(C)oc2=O)cc1 | inactive | –
Cc1ccc(-n2ncc(C(=O)N3CCN(C4CCCCC4)CC3)c2C2CCN(C(=O)OC(C)(C)C)CC2)cc1 | inconclusive [inhibitor, single point] | –
Cc1ccc(C(=O)NC(Cc2cccc(C(F)(F)F)c2)C(=O)O)cc1 (configuration not stated) | inactive | –
CCC(O)(c1ccccc1)C(CN1CCOCC1)c1ccccc1 (configuration not stated) | inconclusive [inhibitor, single point] | –

Structure (SMILES) | Potency | activity change, negative = growth inhibition
CC(C)OC(=O)CC(=O)CSc1nc2c(cc1C#N)CCC2 | inconclusive [inhibitor, single point] | –
O=C(Cn1cccc1C(=O)c1ccccc1)NCc1ccccn1 | inactive | –
COc1ccc(Cl)cc1NC(=O)CN1CCC(n2nnc3cc(C)ccc32)CC1 | inconclusive [inhibitor, single point] | –
O=c1cc(COc2cccc(C(F)(F)F)c2)nc2sc3c(n12)CCCC3 | inactive | –
Cc1ccc(NC(=O)Cn2nc(C)c(S(=O)(=O)N(C)C)c2C)cc1C | inconclusive [inhibitor, single point] | –
Cc1ccc(COC(=O)NCc2cccnc2)cc1 | inactive | –
CN1/C(=C/C2CC(=O)NC2=O)C(C)(C)c2ccccc21 (configuration not stated) | inactive | –
S=C(Nc1ccc(Br)cc1)NC1CCCC1 | inconclusive [inhibitor, single point] | –
O=C(NC(Nc1nc2ccccc2s1)(C(F)(F)F)C(F)(F)F)c1ccccc1 | inactive | –
CC(C)NC(=O)c1nn(C)c2c1CS(=O)(=O)c1ccccc1-2 | inactive | –
COCC(C)Nc1ncnc2c1cnn2-c1ccc(Cl)cc1 (configuration not stated) | inconclusive [inhibitor, single point] | –
CCOC(=O)N1CCC(N(CCOC)C(=O)Nc2ccc(Cl)c(Cl)c2)CC1 | active: 18.4 µM | –
c1ccc2c(-c3c[nH]c4ccccc34)c3ccccc3nc2c1 | inconclusive [inhibitor, single point] | –
CCOc1ccc(C2NC(=O)NC(C)=C2[N+](=O)[O-])cc1OC (configuration not stated) | inactive | –
Cn1c(C(=O)OC(C(=O)NC(C)(C)C)c2cccnc2)cc2sccc21 (configuration not stated) | inactive | –
COc1ccc2c(CC(=O)N3CCN(S(=O)(=O)c4ccc(F)cc4)CC3)coc2c1 | inactive | –
CC(C)Oc1ccc(S(=O)(=O)N2CCOCC2)cc1NC(=O)C1=NN(c2ccccc2)C(=O)CC1 | inconclusive [inhibitor, single point] | –
COc1ccc(C)cc1NC(=O)c1ccccc1NS(=O)(=O)c1ccc(Cl)s1 | active: 8.2 µM | –
CCOc1ccccc1CN(CCc1ccc2c(c1)OCO2)Cc1cc(OC)c(OC)cc1OC | active: 6.51 µM | –
O=C(Nc1cccc2ccccc12)c1csc([C@@H]2C[C@H](O)[C@@H](CO)O2)n1 | inactive | –
CCCN(CC1COc2ccccc2O1)C(=S)Nc1ccc(C)cc1 (configuration not stated) | – | inconclusive: -33.4% [inhibitor]
Cc1sc(NC(=S)NC(=O)c2ccco2)c(C#N)c1C | inactive | –
Clc1ccc(CN2CCc3nc(Nc4ccc5c(c4)OCCO5)ncc3C2)cc1 | active: 16.4 µM | –
